Reference: the supplement of paper PMC11417369
The list shows a part of the results.

System: PfHDP1 homeodomain (GST-tagged)
Assay: gcPBM binding intensity (ln(normalized median fluorescence intensity)); higher = stronger DNA binding
How it was run: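 Binding intensity is the highest Masliner-normalised natural-log median intensity over replicate spots in either probe orientation. To obtain it, GST-tagged P. falciparum DNA-binding domains made in E. coli were incubated for 1 h on an Agilent 4 × 180k array of primer-extended double-stranded 36-bp intergenic genomic probes plus negative controls. Detection used Alexa488 anti-GST antibody with scanning at 488 nm.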

| Sequence | gcPBM binding intensity (ln) |
| --- | --- |
| ATGATGTCTTTATATTGTACATATATGAAGACGTTA [XGTACX_site7751] | 6.47 |
| TATATTACAAAAAGTACACACATAAATAAATACATA [CACACA_site975] | 6.79 |
| ATGCTCAAAAGATATGCATGTACAAATATATGAAAT [TGCATGCA_site592] | 8.03 |
| TATCAAATGTATATATGTACTTATATTTTTTTTATA [XGTACX_site1501] | 6.38 |
| AAATTAAAATAATAATTCTACAAATTAATTTATCAT [XGTACX_negctrl_site44] | 5.9 |
| AATATATTTTCCTGCAAACACACATATAAATGTGTA [CACACA_site532] | 6.78 |
| TTAAAAAAAAATGGCACACATTTTAATTTTATGTTT [CACACA_site5035] | 5.92 |
| TTTTATGATAATTTTGCACACACTTAGGAAAAATTA [CACACA_site1556] | 10.4 |
| TTTATTTAATTCATTGCATGTAATTTTTGTGTCCAC [TGCATGCA_site677] | 6.7 |
| AGAATAAAAAGGAACACACACACACGCATATAAATA [CACACA_site7659] | 7.08 |
| GTAATATTATAATATACACACATAGAATATAAATAT [CACACA_site6333] | 6.68 |
| TTCAAGATTTATTATACACACATATTAATATATATA [CACACA_site573] | 6.83 |
| AAAATACACCAACACACACACATATATATATATATT [CACACA_site4149] | 7.57 |
| AAAAAAAAAAAAAACACACACATATCTATAATATAT [CACACA_site7481] | 6.54 |
| TTGTGATTATATAATCGTACATAATTTTAATCACAC [XGTACX_site398] | 6.42 |
| CAAAACAAAGTTGCCGCACACAGATACGCACCCAAG [CACACA_site3455] | 7.09 |
| GAATATAAACATATTACACACATCTATATGTACTTT [CACACA_site8582] | 6.64 |
| TTATTTTTTCTTTTTTTTCTTACCACAAAAATGGAT [CACACA_negctrl_site362] | 6.32 |
| ATTTTTTCTAATGGGTGTACTGAAACGTATTTTATT [XGTACX_site6573] | 6.93 |
| ATTTATTTATATAATACACACAAATATCTTAATGAA [CACACA_site6064] | 6.32 |
| ATTTGTAATTATTAAACACACACAAAATATATATAA [CACACA_site8804] | 6.93 |
| AAAAAAAAAAAAAACACACACAACACCCATACCTTA [CACACA_site3621] | 6.72 |
| CTTTTAATATGTGTAGTGCATTTTTTTTTTTTTTTT [GTGCAC_site9727] | 8.23 |

| Sequence | gcPBM binding intensity (ln) |
| --- | --- |
| GTCCTTCATCATATTTAACACACAGAGAAAAAGCGG [CACACA_site7979] | 7.13 |
| TTTTTTTTTTTTTTGGTGCGTTTATATATAAATATA | 7.15 |
| GGAATTATATGAAATAAACACACATATGTAATATTA [CACACA_site8586] | 6.34 |
| AAAATCTAATATAATGCACACATAAAAAAAAAATCA [CACACA_site8871] | 10.4 |
| TACATCGACCTATGTACATGCAAATTATTTTTATTT [TGCATGCA_site182] | 7.1 |
| ACCTGGACAAAAATAAATAAATAAATAAATAAATGA [GTGCAC_negctrl_site238] | 6.27 |
| ACATTAAGACACATTGCACACGTGCACCCATAGAAA [CACACA_site8029] | 10.5 |
| TAAATACAGAAACACACACACAAATATATACATACA [CACACA_site2880] | 6.75 |
| AATTCTTTTTTCAACACACACACACTAGAAAATATA [CACACA_site5681] | 6.98 |
| TTTATATATTATTAATGTACAAAATTTTTATTGCAT [XGTACX_site3329] | 6.53 |
| GATATGTGACGTTTGGTATTTTTGATGTTGGTAGGA [CACACA_negctrl_site1448] | 6.65 |
| AAAAAAATAAAATTATATAAAATAAATTTTTATAAT [GTGCAC_negctrl_site587] | 5.77 |
| TTTTGGATCATTTGTTGTACATATGCAAAAAAAAAA [XGTACX_site3157] | 7.09 |
| GGAAAATACATTCCAGTGCATTAATTTATTCAACGT | 9.8 |
| TATGATACATAATATACATGCATACACAACATTCAG [TGCATGCA_site487] | 6.71 |
| ATTTTTTTGTGTTTGGTACACACGTTATAAAAAATA [CACACA_site1345] | 6.32 |
| TTGGTAATAATTTGAGGTACACTGTATAAATTTTTT [XGTACX_site909] | 6.27 |
| AATAATAAATTATGGTGTACGCATTTGTATATATAC [XGTACX_site5417] | 6.54 |
| TTTTTTTCTTAAAGATGTACTTTTTTAAAATAATCT [XGTACX_site3663] | 6.04 |
| GCCCAACCAAAATATACACACAGTTGAATGAATAAA [CACACA_site2597] | 6.6 |
| TATATTTGGAAATATTCTCAATTGGTACAAATAAAA [CACACA_negctrl_site1202] | 6.55 |
| TAAAAGAAATATACATGTACATAAATATATATATAT [XGTACX_site1276] | 8.9 |
| ACATTTTATACGATAAAATGTATAAGATTATGAAGA [TGCATGCA_negctrl_site476] | 6.58 |

| Sequence | gcPBM binding intensity (ln) |
| --- | --- |
| AAAATAATAACATTGTGTACATAAAAAGAAAACCTT [XGTACX_site840] | 6.65 |
| TTATGTCATAAATGCACACATATATATATACATATA [CACACA_site1588] | 10.5 |
| AGGCACGTGTTATATACACACATAATCAAATAAACT [CACACA_site7852] | 6.91 |
| TATGAATGGTTAAGTACACACATATTAATATATGTA [CACACA_site3490] | 6.36 |
| AAATGAAAATAAAGCAACAGAAATATAATGTATTAT [GTGCAC_negctrl_site508] | 6.47 |
| TTAACCTTTTGATATTGTACCCATAATCTAATACAA [XGTACX_site769] | 6.47 |
| TTTTTTAAAAAAGTTTTCTGTATTTATATATATATA [CACACA_negctrl_site31] | 8.56 |
| TCATATGTATAAATTAGTACATATTTAATGGATATA [XGTACX_site3298] | 6.26 |
| CTATCTACATAAACGTGTACCCACAAATAAATAAAT [XGTACX_site5210] | 6.52 |
| TGGTACCTTACTTTTACACACTTTTTTTTTTTTTTT [CACACA_site1557] | 6.37 |
| TTTTGAGTAGCCTATTGTACGAACTTTTTAAATACA [XGTACX_site1224] | 5.78 |
| AATATATACGCATGCGCACACACAAGTGGGAAATTT [CACACA_site1786] | 7.29 |
| CCATTTTAAATATGCACACAGATGCACTAACACATT [CACACA_site5099] | 10.6 |
| ATAAATTTATCCAAGTGTACAAAGCTAACATTTTTT [XGTACX_site4399] | 6.4 |
| CATCCTATTACTTGGTGTACTATTTTATATTGAATA [XGTACX_site1050] | 6.6 |
| AAAAATGGAATTATCTGTACATATATAGTTTTTAAA [XGTACX_site5580] | 6.12 |
| ATAAACAAGACGCAACAAAGTAGAAATTAAAAATAA [CACACA_negctrl_site345] | 6.39 |
| GTTTATAAAATAAGAAGTACTTTATGAGAACCATAT [XGTACX_site5789] | 6.18 |
| TTTTTTTACAACATTACACACAAATATTCTGTGTTA [CACACA_site5957] | 7.53 |
| AACATTTTAAAACAGACACACACCAAAAAAAAAAAA [CACACA_site257] | 6.26 |
| AACAAAAATAATAATCAAATAAATAAATGAAAACAT [CACACA_negctrl_site456] | 6.49 |
| AATCGTGTTCTGAATACACACTAATACAAATTTGTA [CACACA_site6058] | 6.82 |
| AGAAAATTAAAAAGAACACACAAATATATATATAAT [CACACA_site5896] | 6.8 |

| Sequence | gcPBM binding intensity (ln) |
| --- | --- |
| ATATTACAACATTTTATACACACGTGATTATTAATT [CACACA_site2877] | 7.1 |
| CACCCATAAATATACACACGCACAACACAAAATAAA [CACACA_site2903] | 7.24 |
| ATATATATATATACATGTACAAATGTATAACAAATG [XGTACX_site145] | 8.84 |
| TTTTGTTTAAAAAAAAAAAACAAAAAAAAGCAATTA [CACACA_negctrl_site314] | 5.94 |
| TAATTTGTTATGTATTGTACAAATAATATATGATAT [XGTACX_site1985] | 6.74 |
| ATTAAAAAAATATACGCACACAAAATGTAATAACAA [CACACA_site2439] | 7.15 |
| TTACATAATTTATGTACACACGCAAATACTTATAAT [CACACA_site4331] | 6.78 |
| ATTATTACTTTTTGAGTGCACATACACACAGACATA | 10 |
| ATTTTTCATTCTGGACATGTTACCATTATATATATG [CACACA_negctrl_site61] | 7.16 |
| ATAACTATAATAATCATACACACCAAAGAGAATATT [CACACA_site6970] | 6.89 |
| ATGAAACACTCCATAGTGCAAAATATATATTATATT | 9.33 |
| CTATTTTTCCTGAAATGTACAAGAATTTTATTTGAT [XGTACX_site8867] | 6.15 |
| TGATAATATTATATATGTACATATATGTATATTTTT [XGTACX_site7193] | 6.38 |
| AATTCAATTGAGCAAAATTCAAATAAATTAAAAAGA [XGTACX_negctrl_site71] | 7.15 |
| CAAAAATAATTTAGGTGTACAAATTTGACAAAAAAA [XGTACX_site188] | 7.11 |
| ATATGGGTGAACATATGTACATATATATATTGATAA [XGTACX_site8438] | 6.81 |
| TTGGTATATTATAAAAGTACACATAATAAAAAATTT [XGTACX_site7985] | 6.52 |
| TTTATTTATAGGTATACACACTTTAATTAAAAGTTG [CACACA_site7232] | 6.63 |
| CCTAAAGTGTAAAATTCACACACATATATATATATA [CACACA_site8385] | 9.3 |
| TTTATTTTTGAAGTTGCACACACAAAAATAAAAAGT [CACACA_site8030] | 8.92 |
